{"source": "PubChem BioAssay AID588855", "about": "(National Center for Advancing Translational Sciences (NCATS), 2011)", "note": "Among all 410,000 compounds or so, about 5,000 (1.2%) were called active. Inconclusive results, whose numbers are uncertain, are shown with a selection of clear calls. Calls follow the shape of the dose curve; as a rule, active = well fitted inhibition curve with a large enough effect; inconclusive = small, poorly fitted or top-dose-only effect; inactive = no such curve, though single readings can be large or run the other way. Potencies beside an inconclusive call are fits to weak or partial responses and may not hold up. Potency is read from the fitted curve at half-maximal effect; tags tell the direction and shape of the fitted curve."}
{"experiment": "qHTS for Inhibitors of TGF-b; also: nearly all actives have a fitted effect of over 65% in size", "settings": "HepG2 CAGA-GFP TGF-b/SMAD3 reporter, GFP fluorescence, 18 h, TGF-beta stimulated, 500 pg/mL final; series mostly up to 46.1 µM", "how_it_was_run": "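HEPG2 CAGA-GFP cells (1000/well, DMEM with 1% FBS) were pre-incubated 2 h at 37 degrees C, given compound by pin tool, then stimulated with TGF-beta at 500 pg/mL final for 18 h before per-cell GFP fluorescence imaging.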"}
{"smiles": "CCOC(=O)CC(NC(=O)Cn1nnc(-c2ccc(C(F)(F)F)cc2)n1)c1ccccc1Cl", "note": "(stereo unspecified)", "Potency": "inactive"}
{"smiles": "CCO[C@@H]1OC(C(=O)N2CCOCC2)=C[C@H](C)[C@H]1CCCO", "Potency": "inconclusive: 35.5 µM [inhibitor, single point]"}
{"smiles": "Cc1cc(/C=N\\NC(=O)CC(=O)NC2CCCCC2)c(C)n1-c1ccc(Cl)c(Cl)c1", "Potency": "inconclusive: 35.5 µM [inhibitor, single point]"}
{"smiles": "CC(=O)Nc1cc(C(=O)NCc2ccc(F)cc2)ccc1Sc1ccc(C)cc1", "Potency": "inactive"}
{"smiles": "CC1CCN(S(=O)(=O)c2ccc3ncn(CC(=O)Nc4ccccc4C(F)(F)F)c(=O)c3c2)CC1", "Potency": "inconclusive: 1.12 µM [inhibitor, partial curve]"}
{"smiles": "COc1ccc(S(=O)(=O)Nc2ccc3c(c2)N(C(C)=O)CCC3)cc1OC", "Potency": "inactive"}
{"smiles": "Cc1nn(-c2ccccc2)c(-n2cccc2)c1C(=O)NCc1ccccc1Cl", "Potency": "inconclusive: 12.6 µM [inhibitor, partial curve, poor fit]"}
{"smiles": "O=C(Nc1c(F)cc(F)cc1Br)c1cc(S(=O)(=O)N2CCN(c3ccccn3)CC2)ccc1F", "Potency": "inconclusive: 35.5 µM [inhibitor, single point]"}
{"smiles": "CCn1c(SCC(=O)N2c3ccccc3CCc3ccccc32)nc2c1c(=O)n(C)c(=O)n2C", "Potency": "inactive"}
{"smiles": "C=Cn1nc(C)c2ccccc2c1=O", "Potency": "inconclusive: 2.82 µM [inhibitor, single point]"}
{"smiles": "CC(C)(C)OC(=O)N1CCC(c2c(C(=O)Nc3cccc(C(F)(F)F)c3)cnn2-c2ccc(F)cc2F)CC1", "Potency": "inconclusive: 2.82 µM [inhibitor, partial curve, poor fit]"}
{"smiles": "O=C(Nc1nnc(COc2ccc(F)cc2)s1)Nc1ccccc1F", "Potency": "inconclusive: 1.12 µM [inhibitor, full curve, poor fit]"}
{"smiles": "Cc1oc(-c2ccc(Cl)cc2)nc1CS(=O)CC(=O)NCCCN1CCN(Cc2ccccc2)CC1", "note": "(stereo unspecified)", "Potency": "inconclusive: 14.1 µM [inhibitor, partial curve, poor fit]"}
{"smiles": "CCN1CCN(C(c2cccs2)C(C)NC(=S)NC2CCCCC2)CC1", "note": "(stereo unspecified)", "Potency": "inactive"}
{"smiles": "CC1(C(=O)NNC(=S)NCc2ccco2)CC1(Cl)Cl", "note": "(stereo unspecified)", "Potency": "inactive"}
{"smiles": "CCN(CC)S(=O)(=O)c1ccc2c(c1)c(=O)c(C(=O)N(C)Cc1ccccc1)cn2C", "Potency": "inactive"}
{"smiles": "COc1cc(OC)c(OC)cc1/C=N/NC(=O)c1ccc2nc[nH]c2c1", "Potency": "inactive"}
{"smiles": "Cc1ccc(S(=O)(=O)N2CCN(c3ccc([N+](=O)[O-])c4cccnc34)CC2)cc1", "Potency": "inconclusive: 15.8 µM [inhibitor, partial curve, poor fit]"}
{"smiles": "CCCCOC(=O)Nc1cccc(C(=O)OCC)c1", "Potency": "inconclusive: 12.6 µM [inhibitor, partial curve, poor fit]"}
{"smiles": "NCCCC[C@H]1CNC(=O)C(=O)N1CC1CCCCC1", "Potency": "inconclusive: 0.631 µM [inhibitor, full curve, poor fit]"}
{"smiles": "O=C(Cc1ccccc1)N/N=C/c1ccc([N+](=O)[O-])s1", "Potency": "inconclusive: 10 µM [inhibitor, partial curve, poor fit]"}
{"smiles": "FC(F)(F)c1ccccc1NC(=S)N1CCN(Cc2ccc3c(c2)OCO3)CC1", "Potency": "inconclusive: 10 µM [inhibitor, partial curve, poor fit]"}
{"smiles": "O=C(CN1CCN(Cc2ccc3c(c2)OCO3)CC1)Nc1cc(S(=O)(=O)N2CCCC2)ccc1Cl", "Potency": "inconclusive: 8.91 µM [inhibitor, partial curve, poor fit]"}
{"smiles": "CCCOc1ccc(S(=O)(=O)NCc2ccc(OC)cc2)cc1", "Potency": "inconclusive: 22.4 µM [inhibitor, single point]"}
{"smiles": "CCOc1ccc(S(=O)(=O)Nc2ccc(C(=O)N/N=C/c3c(C)nn(-c4ccccc4)c3N3CCCC3)cc2)cc1", "Potency": "inconclusive: 11.2 µM [inhibitor, single point]"}
{"smiles": "COc1ccc(C2C(=O)N(C3CCCCCC3)CC(=O)N2CCc2ccccc2)cc1", "note": "(stereo unspecified)", "Potency": "inconclusive: 1.12 µM [inhibitor, full curve]"}
{"smiles": "CCN(c1ccc(C)cc1C)S(=O)(=O)c1nnc(NC(=O)C(C)(C)C)s1", "Potency": "inconclusive: 22.4 µM [inhibitor, partial curve, poor fit]"}
{"smiles": "CC(C)(C)OC(=O)N1CCC(c2c(C(=O)Nc3ccc4c(c3)OCCO4)cnn2-c2ccc(F)cc2)CC1", "Potency": "inconclusive: 14.1 µM [inhibitor, single point]"}
{"smiles": "COc1ccc(OC)c(NCc2cccn2-c2nnc(N3CCC(C)CC3)s2)c1", "Potency": "inactive"}
{"smiles": "O=C(CSc1ccc2ccccc2n1)NCCC1=CCCCC1", "Potency": "inconclusive: 3.98 µM [inhibitor, single point]"}
{"smiles": "O=C(CC1SC(N2CCOCC2)=NC1=O)Nc1ccccc1Cl", "note": "(stereo unspecified)", "Potency": "inactive"}
{"smiles": "COc1ccc(CNCC(O)(c2ccc(Cl)cc2)c2ccc(Cl)cc2)cc1OC", "Potency": "inconclusive: 25.1 µM [inhibitor, partial curve, poor fit]"}
{"smiles": "O=C(NNc1nc(-c2ccccc2)cs1)c1ccco1", "Potency": "inconclusive: 35.5 µM [inhibitor, single point]"}
{"smiles": "Cc1ccc(C(CC(=O)NCC2(c3ccccc3)CCCC2)c2ccccc2)c(O)c1", "note": "(stereo unspecified)", "Potency": "inconclusive: 28.2 µM [inhibitor, single point]"}
{"smiles": "O=c1oc(/C=C/c2ccc([N+](=O)[O-])s2)nc2ccccc12", "Potency": "inactive"}
{"smiles": "COc1ccc(C2CC(c3ccccc3)=NN2C(=O)COC(=O)c2cccnc2Cl)cc1", "note": "(stereo unspecified)", "Potency": "inconclusive: 0.891 µM [inhibitor, full curve, poor fit]"}
{"smiles": "O=c1cc(-c2ccccc2Cl)oc2c(NS(=O)(=O)c3ccccc3C(F)(F)F)ccc(O)c12", "Potency": "inactive"}
{"smiles": "C[C@@H](/C=C/c1ccc2ccccc2c1)C1COC(=O)C[C@H]1O", "note": "(stereo partly specified)", "Potency": "inactive"}
{"smiles": "COc1ccc(Nc2nc(N)c([N+](=O)[O-])c(NC3CCCCC3)n2)cc1", "Potency": "inconclusive: 22.4 µM [inhibitor, single point]"}
{"smiles": "Cc1cc(Cl)ccc1NS(=O)(=O)c1ccc2c(c1)CCN2S(C)(=O)=O", "Potency": "inconclusive: 10 µM [inhibitor, partial curve, poor fit]"}
{"smiles": "O=C(O)Cc1c[nH]c2ccc(O)cc12", "Potency": "inconclusive: 35.5 µM [inhibitor, single point]"}
